From PMC9574860, “Chemical Toolkit for PARK7: Potent, Selective, and High-Throughput” (Journal of Medicinal Chemistry, 2022)
Hit rate of the full screen: of about 7,900 compounds, about 400 (5.1%) showed an effect of 50% or more. The list shows a part of the results.

biological target: Parkinson's disease protein 7 (PARK7/DJ1) (human, UniProt Q99497); test: primary screen, percent inhibition; read as competition with a fluorescent probe by fluorescence polarization; higher = more effect of the substance; settings: 100 µM
Sequence (Q99497 whole entry, looked up, the tested form may be a part): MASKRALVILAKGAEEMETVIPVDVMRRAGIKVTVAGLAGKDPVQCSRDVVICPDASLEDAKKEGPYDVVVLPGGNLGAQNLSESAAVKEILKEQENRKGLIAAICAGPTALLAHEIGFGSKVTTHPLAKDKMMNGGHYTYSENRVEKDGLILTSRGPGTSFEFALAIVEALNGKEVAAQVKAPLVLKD
Method in brief: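 Covalent fragments at 100 μM final were incubated 2 h with 0.2 μM PARK7, then 20 nM probe JYQ-107 added for a further 2 h. Fluorescence polarization read at 480/520 nm; relative FP loss versus reference controls gave remaining enzyme activity.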

Compound	Inhibition % [%]
CC1(C)OB([C@@H]2C[C@H]2N)OC1(C)C.Cl (racemic)	5.19
COCCn1c(S)nc2cc(Cl)ccc2c1=O	0.512
C=CC(=O)N1CC2(CCOCC2)c2ccccc21	7.61
C=CC(=O)N(C)Cc1cccnc1	11.8
CCn1ncc(C(=O)CCl)n1	87.8
C=CC(=O)N(C)C1CCN(c2ccccc2Cl)C1=O (stereo not drawn)	6.51
O=C(c1cccs1)N1CCC(S(=O)(=O)F)CC1	10.8
N#Cc1[nH]cnc1C(F)(F)F	22.2
COc1cc(B2OC(C)(C)C(C)(C)O2)cnc1C#N	7.43
CCOCCCn1c(S)nc2cc(Cl)ccc2c1=O	9.16
O=C(CCl)Nc1ccc2c(c1)OC1(CCCCC1)O2	93.3
O=C(CCl)N(CC1CCCO1)C1CCS(=O)(=O)C1 (stereo not drawn)	8.57
Cc1nn(C)c(Cl)c1C=CC(=O)N1CCC(N)CC1.Cl	11.2
CCn1ccc(=O)nc1S	1.97
Cc1cc(C(=O)Cn2cnc(C#N)n2)c(C)n1C(C)C	11.7
Cc1ccc(NC(=O)CN2CCSC2=O)cc1Cl	7.62
O=C(Nc1cccc(Cl)c1)N1CCC(C2OCCO2)CC1	7.17
N#CC(C(=O)CCl)c1nc2ccccc2[nH]1 (stereo not drawn)	29.3
O=S(=O)(C=Cc1ccc(Cl)cc1)NCC1CCCO1 (stereo not drawn)	6.48
CCOc1ccc(Cl)cc1S(=O)(=O)n1nc(C)cc1C	0.108
O=S1(=O)CCC(NS(=O)(=O)C=Cc2ccccc2)C1 (stereo not drawn)	6.88
CC1(C)OB(c2ccc(CO)c(N)c2)OC1(C)C	12.8
CC1Cc2ccccc2N1C(=O)CCl (stereo not drawn)	8.22
O=C(CCl)NCC1CCN(c2ccccc2)C1 (stereo not drawn)	25.2
Cc1csc(Cl)c1NC(=O)CCl	4.72
C=CC(=O)N1CCCn2nnnc21	3.91

Compound	Inhibition % [%]
O=C(CCl)NCC1(c2ccccc2)CC1	11.9
Cn1cc(C(C)(C)C(=O)Nc2cccc(S(=O)(=O)F)c2)cn1	88.2
N#Cc1cc(NCC2CCCO2)ccn1 (stereo not drawn)	-2.52
Cc1cccc(F)c1B1OC(C)(C)C(C)(C)O1	4.86
COC(=O)C(F)(F)c1ccc(B2OC(C)(C)C(C)(C)O2)cc1	7.59
O=C(C=Cc1cnc2ccccc2n1)N1CCCCC1	9.55
C=CC(=O)N1CC2(CCC2)c2ccccc21	4.37
COc1cc([N+](=O)[O-])ccc1NC(=O)CCl	13.4
C=CC(=O)NC[C@@H]1OCCN(C)[C@H]1c1ccccc1	12
N#Cc1ccc2c(n1)CCCN2	0.203
C=CC(=O)NCCc1cnc(C2CC2)nc1	7.94
C=CC(=O)N1CCN(c2cccc(OC(F)F)c2)CC1	6.79
Cc1nc(C=CC(=O)N2CCCC2)cs1	7.3
C=CC(=O)N1CCC(c2nc(C(F)(F)F)cs2)CC1	4.08
CC1(C)OB(c2cccc3c2OCC3)OC1(C)C	11.2
C=CC(=O)N1CC(NC(=O)C(F)(F)F)CCC1C(F)(F)F (stereo not drawn)	1.69
Cc1c(B2OC(C)(C)C(C)(C)O2)n(C(=O)OC(C)(C)C)c2ccccc12	8.09
CCCSc1nsc(NC(=O)CCl)n1	27.3
C=CC(=O)NCCc1nnnn1-c1ccccc1	8.6
O=[N+]([O-])c1ccc(C(F)(F)F)c(S(=O)(=O)F)c1	102
CC(=O)N1CCN(C(=O)CN(C#N)c2ccccc2)CC1	6.74
C=CC(=O)N1CC(Cc2ccccc2)C1	4.5
O=C1CCC(=O)N1Cc1cccc(SC(F)(F)F)c1	2.67
CC1(C)OB(c2ccc(OC(F)F)c(F)c2)OC1(C)C	2.66
CN(CC1CC1)C(=O)CCl	50.3
COc1cccc(Cn2ccnc2C#N)c1	4.18

Compound	Inhibition % [%]
N#Cc1nc(NCCCN2CCCCC2=O)ccc1Cl	5.54
CC(C)NC(=O)C(C#N)=Cc1ccc(C(=O)O)n1C	20.9
N#Cc1cnc(OCC(F)F)cn1	6.83
CS(=O)(=O)C(C#N)=Cc1ccc(F)cc1	6.88
C=CC(=O)NCC1C(C)(C)C1(C)C	4.08
C=CC(=O)Nc1snc2ccccc12	11
CC(C)Cn1c(S)nc2ncccc2c1=O	6.75
C=CC(=O)N(Cc1ccccc1)C1COC(C)(C)C1 (stereo not drawn)	11.7
COc1ccc(-c2cc(C#N)c(S)nc2C)cc1	2.42
O=C(CCl)NCc1ccccc1OC(F)(F)F	21.2
C=CC(=O)N1CCCC2(CC=CCC2)C1 (stereo not drawn)	4.98
C=CC(=O)NNC(=O)c1ccccc1	-1.66
C=CC(=O)N(CCO)c1ccc(C(=O)O)cc1	-1.36
CC1CCC(C)N(C(=O)c2ccc(B(O)O)cc2)C1 (stereo not drawn)	25.2
C=CC(=O)Nc1cnc(C)nc1	9.56
Cc1cc(B2OC(C)(C)C(C)(C)O2)ccc1N	8.63
Cc1ccc(NC(=O)Cn2cnnc2C#N)cc1F	28.9
Cc1cc(C=C(C#N)C(N)=O)c(C)n1C1CC1	2.13
O=C(CCl)C1CCOCC1	99
C=CC(=O)NCC1CCCC(C(F)(F)F)C1 (stereo not drawn)	8.81
CN1CCC(N(C)C(=O)C(C#N)=Cc2ccccc2)CC1.Cl	15.3
C=CC(=O)N1CCC(Cc2nc(C)cs2)C1 (stereo not drawn)	4.38
CCc1ncc(NC(=O)c2cccnc2S)cn1	5.89
O=c1oc(-c2ccc(F)cc2)nn1Cc1cccnc1	16
CC1N=C(S)N(Cc2ccccc2)C1=O (stereo not drawn)	2.79
O=C(CCl)NNC(=O)CC1CCS(=O)(=O)C1 (stereo not drawn)	-1.57
